Experimental data taken from PubChem BioAssay AID588855 (National Center for Advancing Translational Sciences (NCATS), 2011).
Among all 410,000 compounds or so, about 5,000 (1.2%) were called active. The inconclusive results got no clear call from the source; some entries with a clear call stand among them for comparison. Calls come from the whole dose curve; as a rule, active = well fitted inhibition curve with a large enough effect; inconclusive = small, poorly fitted or top-dose-only effect; inactive = no such curve, though single readings can be large or run the other way. Potencies of inconclusive entries are doubtful fits and often do not repeat.

Assay: qHTS for Inhibitors of TGF-b; note: nearly all actives have a fitted effect of over 65% in size
Conditions: HepG2 CAGA-GFP TGF-b/SMAD3 reporter, GFP fluorescence, 18 h, TGF-beta stimulated, 500 pg/mL final; series mostly up to 46.1 µM
Outline: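 Using HEPG2 CAGA-GFP reporter cells at 1000 cells/well, we pinned test compounds, stimulated with recombinant TGF-beta (500 pg/mL final) and measured total well GFP after 18 h.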
Potency is the fitted concentration of half-maximal effect; tags give direction and shape of the fitted curve.

SMILES	Potency
COc1ccccc1CNCC(=O)NCc1ccc(C)cc1	inactive
CC1CCc2nc(NC(=O)c3ccc(S(=O)(=O)N4CCCc5ccccc54)cc3)sc2C1 (stereo unspecified)	inactive
Cc1ccc(C(C(=O)NC2CCCC2)N(C(=O)Cc2cccs2)c2ccc3c(c2)OCCO3)cc1 (stereo unspecified)	inactive
CCOc1cc(C(=S)N2CCCC2)ccc1OCC(=O)Nc1c(C)cc(C)cc1C	inactive
CCCCNC(=O)C1(C)CCCCN1C(=O)c1ccc2ccccc2n1 (stereo unspecified)	inconclusive: 35.5 µM [inhibitor, single point]
COc1cccc(/C=C/C(=O)c2ccc3c(c2)OCO3)c1OC	inconclusive: 31.6 µM [inhibitor, single point]
Cc1ccc(-c2noc(C(C)NC(=O)c3ccco3)n2)cc1 (stereo unspecified)	inconclusive: 4.47 µM [inhibitor, full curve]
CCc1nc2ccc(C(=O)Nc3ccc(Cl)c(Cl)c3)cn2c1N(C)Cc1ccc(OC)cc1	active: 11.2 µM
COC(=O)c1ccc(CN(c2ccccn2)S(=O)(=O)c2ccccc2)cc1	inactive
CCOc1cccc(/C=N/N2C(C)CCCC2C)c1O (stereo unspecified)	inactive
NC(=O)c1ccccc1NC(=O)CCCN1C(=O)CCC1=O	inconclusive: 0.282 µM [inhibitor, full curve, poor fit]
COc1ccccc1N1CCN(C(=S)Nc2cccc(C)c2)CC1	inconclusive: 15.8 µM [inhibitor, single point]
CCc1nc2c(cnn2-c2ccc(C)cc2)c(=O)n1-c1ccc(C)cc1	inconclusive: 10 µM [inhibitor, partial curve, poor fit]
COc1ccc(Cn2c(-c3ccc(Br)cc3)c[n+]3ccccc23)cc1	inconclusive: 35.5 µM [inhibitor, single point]
O=C(Nc1cccc(C(F)(F)F)c1)c1cc(-c2ccc(Cl)cc2)on1	inconclusive: 12.6 µM [inhibitor, partial curve, poor fit]
COc1ccc(/C=C/C(=O)NC(=S)Nc2ccc(S(=O)(=O)Nc3cc(C)on3)cc2)cc1	inconclusive: 35.5 µM [inhibitor, single point]
CC(C)CCCCCCNC(=S)Nc1ccc(S(=O)(=O)N2CCOCC2)cc1	active: 20 µM
Cc1ccc(CNC(=S)Nc2ccc(NS(=O)(=O)c3ccc(C)cc3)cc2)cc1	inconclusive: 35.5 µM [inhibitor, single point]
O=c1oc2ccccc2c2c1ncn2C1CCCCC1	inconclusive: 3.16 µM [inhibitor, single point]
CC1CCN(S(=O)(=O)c2ccc3c(ccn3CC(=O)NCc3ccccc3F)c2)CC1	inconclusive: 35.5 µM [inhibitor, single point]
COc1cccc(CNC(=O)c2ccc3c(c2)nc2n3CCOC2)c1OC	inactive
COC/C=C/C1=CC2=CC(=O)C(C)(OC(=O)c3cnc4ccccc4n3)C(=O)C2=CN1CCCOC(C)C (stereo unspecified)	inconclusive: 35.5 µM [inhibitor, single point]
COC(=O)C1=C(CN2CCCc3ccccc32)NC(=O)NC1c1ccc(F)cc1 (stereo unspecified)	inconclusive: 2.82 µM [inhibitor, partial curve, poor fit]

SMILES	Potency
CN(Cc1ccccc1)C(=O)c1ccc(Nc2nc(C(N)COCc3ccccc3)cs2)nc1 (stereo unspecified)	inconclusive: 35.5 µM [inhibitor, single point]
C=CCNC(=O)c1onc(CSc2ccc(F)cc2)c1C(=O)NCC=C	inactive
CCOC(=O)Nc1c(C(=O)OC)[nH]c2cc(OC)ccc12	inconclusive: 35.5 µM [inhibitor, single point]
CCn1c(=O)n(-c2ccc(F)c(Cl)c2)c(=O)c2sc3ccccc3c21	inactive
CC1(C)Cc2c(sc3c2c(=O)n(Cc2ccccc2)c2nncn32)CO1	inconclusive: 5.62 µM [inhibitor, full curve]
CCOC(=O)C(Cc1ccccc1)NC(=O)CCCC(=O)c1ccccc1 (stereo unspecified)	inconclusive: 17.8 µM [inhibitor, single point]
Cc1ccccc1-n1nc2c(c1NC(=O)COc1ccc(Cl)cc1)CS(=O)C2 (stereo unspecified)	inconclusive: 3.16 µM [inhibitor, partial curve, poor fit]
O=C(O)Cn1nnc(-c2cccs2)n1	inactive
CC1=NN(/C(=N\c2nnc(C)s2)Nc2ccc(C)cc2)[C@H](c2ccc(C)cc2)S1	inactive
CCCSC1=C(C#N)C(c2cccs2)C(C(=O)Nc2ccccc2)=C(C)N1 (stereo unspecified)	inconclusive: 35.5 µM [inhibitor, single point]
COc1ccc(S(=O)(=O)N2CCN(CC(=O)Nc3ccc(F)c(F)c3)CC2)cc1	inconclusive: 35.5 µM [inhibitor, single point]
Cc1ccc(C)c2c3c([nH]c12)-c1nonc1CC3	inconclusive: 22.4 µM [inhibitor, single point]
CCOCCCNC(=O)c1c(N)n(-c2ccc(S(N)(=O)=O)cc2)c2nc3ccccc3nc12	inactive
CCN(c1ccccc1)S(=O)(=O)c1cccc(C(=O)N(C)CC(=O)Nc2ccc(F)c(F)c2F)c1	inactive
N#CC1=C(SCc2ccccc2)NC(=O)CC1c1ccco1 (stereo unspecified)	inactive
Cc1ccccc1-c1nc2c3c(-c4ccccc4)c(-c4ccccc4)oc3ncn2n1	inactive
CCOC(=O)c1c(/N=C/c2cc(OC)cc([N+](=O)[O-])c2O)sc(C)c1C	inactive
Cc1cccc(N2CCN(C(=O)COCc3cc(-c4ccc5c(c4)OCO5)on3)CC2)c1C	inconclusive: 12.6 µM [inhibitor, partial curve]
Cc1cc(C)c(S(=O)(=O)Nc2ccccc2)c(C)c1	inconclusive: 3.98 µM [inhibitor, single point]
Cc1cc(C)cc(-c2nnc(SCC(=O)Nc3cc(C)on3)o2)c1	inactive
CCC1Sc2ccc(S(=O)(=O)Nc3ccc(OC)cc3)cc2NC1=O (stereo unspecified)	inconclusive: 35.5 µM [inhibitor, single point]
O=c1ccn(Cc2ccccc2)cc1	inconclusive: 5.01 µM [inhibitor, full curve, poor fit]
COc1cccc(-c2ccnc3c(-c4ccccc4)c(C)nn23)c1	inactive
